Experimental data published in a compilation of properties of binary mixtures (doi:10.1016/j.molliq.2022.119052).
The densities may have been worked out from excess volumes.

Experiment: xn = mol fraction of the nth substance listed
Conditions: 100 kPa, x1 = 0.333

| SMILES | mass density (298.15 K) | mass density (313.15 K) | mass density (323.15 K) | mass density (333.15 K) | mass density (303.15 K) |
| --- | --- | --- | --- | --- | --- |
| CCn1cc[nH+]c1.[Cl-] + OCC(O)CO | 1150 kg/m3 | 1142 kg/m3 | 1136 kg/m3 | 1130 kg/m3 |  |
| CC[n+]1ccn(C)c1.[Cl-] + OCC(O)CO | 1150 kg/m3 | 1146 kg/m3 | 1144 kg/m3 | 1140 kg/m3 |  |
| Cn1cc[nH+]c1.[Cl-] + OCC(O)CO |  |  | 1183 kg/m3 |  | 1194 kg/m3 |
